Results taken from publication PMC10668032.
The other results are listed elsewhere or left out. At the low end of the ranking the order means little.

Molecular target: SIX1-Q177R homeodomain (UniProt Q15475)
Test: universal protein binding microarray
Conditions: Universal all-10-mer PBM (8x60K, AMADID 030236), 300 nM GST-tagged protein, Alexa Fluor 488 anti-GST; buffer, salt, pH and temperature not stated; high values mean tight binding; most listed sequences are background and not binding sites; double strand, one strand shown

| Sequence | binding signal [E-score] |
| --- | --- |
| AGCAGAAG | -0.186 |
| TGCCAGCA | -0.00722 |
| AGCCATGC | -0.321 |
| GCTTTACC | 0.0775 |
| ATTCCCGA | -0.128 |
| GGGCCCGA | -0.0924 |
| ATAAATTA | -0.189 |
| GACGCCTC | 0.104 |
| CGGGCTTC | 0.0774 |
| CGGGGAAC | 0.103 |
| CCAGATAA | 0.072 |
| ACTATCAT | -0.0747 |
| AGCATCAG | -0.0214 |
| TATAAGAA | -0.227 |
| TACTCGCA | 0.128 |
| AGCATCAA | -0.223 |
| AGCTTAGC | -0.22 |
| CAGCTCGC | -0.22 |
| CATCATGG | -0.0147 |
| TCAAAGAA | -0.056 |
| GGTCTTAC | 0.062 |
| AAACACGA | 0.324 |
| CGACTGTA | 0.019 |
| CCAGATTC | -0.132 |
| CAACGTCG | -0.0989 |

| Sequence | binding signal [E-score] |
| --- | --- |
| CAGATTTA | -0.111 |
| AGTTGTCG | -0.0454 |
| ACACTCGG | 0.408 |
| ATAAGACG | -0.132 |
| CGCGACAG | -0.115 |
| GACCGTGA | -0.158 |
| CGCGTGAG | -0.106 |
| ACTTCGTG | 0.238 |
| TAGCTTCA | -0.126 |
| TTACAAAA | -0.109 |
| AGTGTTCC | 0.334 |
| CATTTGGA | 0.102 |
| GCTTTCAC | 0.00426 |
| ACAACCTG | 0.0376 |
| AAAGAGCG | -0.276 |
| GCTGTGTA | 0.223 |
| ACCTGATG | -0.0321 |
| GCCATGTA | -0.116 |
| ATTCAACA | -0.0267 |
| AATGCACG | 0.101 |
| CAGGCTGA | -0.00611 |
| GGCCGGAC | -0.192 |
| ACACTCGA | 0.358 |
| ACGGCCAC | -0.099 |
| AAGCACCG | 0.175 |

| Sequence | binding signal [E-score] |
| --- | --- |
| ACCACGTA | -0.0737 |
| CGTTGATC | -0.185 |
| CAACAGCG | 0.00367 |
| CATACTAA | -0.0276 |
| AAAATCGT | -0.192 |
| CCGTGTAA | 0.44 |
| AGACTTGA | -0.176 |
| CGAAGTTC | -0.29 |
| AGTAACAG | -0.0285 |
| AGTTCGCC | -0.294 |
| CCAGTGCC | 0.0612 |
| GTATTAAA | -0.0315 |
| CTGCAGTA | -0.173 |
| ACCGACGT | 0.00033 |
| CAAGCCGG | -0.00524 |
| ACGCCCGG | 0.206 |
| AAAACGTA | -0.0459 |
| CGTGAAAC | 0.0541 |
| GGAGAGGA | -0.0525 |
| ATAGCCGC | -0.189 |
| ATCTTGAC | -0.0828 |
| AACCCCCG | 0.244 |
| AGAACGTA | -0.226 |
| GACATTAA | -0.141 |
| CGGCGCCG | -0.0454 |

| Sequence | binding signal [E-score] |
| --- | --- |
| CAAAGACG | -0.212 |
| CGGTGACG | 0.083 |
| AGGTCGGC | -0.0277 |
| GAGGGAGC | -0.109 |
| ATCACAAA | -0.157 |
| AGGTTATA | -0.0318 |
| AACAATGA | -0.0671 |
| ACGGACGT | 0.0377 |
| ACTCCGGA | 0.204 |
| ACACGACG | 0.368 |
| GCGAACGA | -0.139 |
| CCGCTCAG | 0.0474 |
| ATTGGTCG | -0.16 |
| AGGTGAGA | -0.103 |
| ATCGGTTC | -0.13 |
| ATGTGTCA | 0.253 |
| ATTATCTC | -0.172 |
| CTCCAACA | 0.206 |
| TGGCCCCA | -0.141 |
| GCCGGGCA | -0.0693 |
| CAGCGGTA | -0.0532 |
| AAGTCGGT | -0.191 |
| CGGAGTGC | 0.0207 |
| ACCCGTGA | 0.0625 |
| CTATAAAG | -0.093 |

| Sequence | binding signal [E-score] |
| --- | --- |
| CCTAAGAA | -0.132 |
| ACCATCCC | 0.0967 |
| GGCGTAAC | 0.0084 |
| ACCAGTCC | -0.0974 |
| ACACGTAC | 0.353 |
| CAATTCCG | -0.041 |
| CCAGTGTC | 0.431 |
| ACTGGCGA | 0.0467 |
| CGGTCTCA | -0.123 |
| ACCACTAG | 0.0756 |
| CAGCTCCA | -0.11 |
| AATTTACT | 0.0362 |
| CCCAAACG | 0.169 |
| CACCGTTC | 0.324 |
| ACGATTTC | -0.106 |
| GTCGTGGA | -0.0282 |
| GACTCTTA | 0.0345 |
| CATAACGC | 0.0201 |
| CGATATCC | 0.132 |
| GGTACTTA | -0.0133 |
| CGCCTTGC | -0.0564 |
| ATAGAAAG | -0.0414 |
| CAGTACAA | 0.0924 |
| CGTGTGTC | 0.289 |
| CACTGCGG | 0.154 |

| Sequence | binding signal [E-score] |
| --- | --- |
| ACCACTCC | 0.0931 |
| CGGAATCC | -0.00467 |
| AAAGGAGA | -0.167 |
| TAGTGTCA | 0.454 |
| ATTAACGG | 0.0055 |
| AGTAATTA | -0.0481 |
| CATTCTAG | -0.0463 |
| ACCTCGAT | 0.138 |
| AGTGTAAA | 0.402 |
| CTCTGCAA | -0.147 |
| AGCCCATA | -0.0225 |
| CTCTGGGA | -0.0853 |
| CCAAGCAC | 0.142 |
| CGCATACC | -0.0375 |
| CCGAAACA | 0.0245 |
| CGGGAAGC | -0.027 |
| ATTAACGC | -0.0649 |
| GTCGTAAA | 0.00539 |
| AGTATGAC | 0.094 |
| GTCGCGAA | 0.0937 |
| AAAGCGGC | -0.248 |
| CCTCCGCA | -0.0882 |
| GGATAAAC | 0.169 |
| AGCAGATC | -0.0205 |
| CGAAATCC | -0.103 |

| Sequence | binding signal [E-score] |
| --- | --- |
| AGGAAGAA | -0.182 |
| AAAGAGGT | 0.101 |
| AAAGCATA | -0.218 |
| GCGTTTAC | 0.16 |
| ATCATCAC | 0.0203 |
| AGCACGAG | -0.0568 |
| AATCCCGA | 0.0834 |
| AAATGCGC | -0.167 |
| GCCAAGCA | -0.195 |
| ATTTCCTA | 0.00118 |
| TAGTTCCA | -0.179 |
| GTGCGTCA | 0.104 |
| CGGCAGAA | -0.254 |
| AACTATAA | -0.259 |
| ATGGTTAC | -0.0455 |
| ACGCATAC | 0.0588 |
| AAGCATAG | -0.318 |
| CTGGAACC | -0.062 |
| ACTACCCG | 0.204 |
| CCGGCGCG | 0.0543 |
| GGCCTGAA | -0.152 |
| AAATAATA | -0.151 |
